Laboratory results as given in PubChem BioAssay AID1508624 (National Center for Advancing Translational Sciences (NCATS), 2021).
The whole screen tested about 48,000 compounds, of which about 120 (0.25%) were called active. Not shown: some 4% with an inconclusive outcome. The call rests on the fitted dose curve; in most records, active means well fitted activation curve with a large enough effect; inconclusive means small, poorly fitted or top-dose-only effect, or another doubt; inactive means no such curve, though single readings can be large or run the other way. The list shows a part of the results.

Assay: Primary qHTS for Identification of Small Molecule Activators of Huntingtin-Antisense Promoter Activity; further: nearly all actives have a fitted effect of over 55% in size
Settings: HEK293 HTT-AS promoter firefly luciferase reporter, 24 h; series mostly up to 57.5 µM; activity change, positive = activation: at the top concentration
In short: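 HEK293 cells carrying firefly luciferase reporters were seeded at 2,500 per well in Opti-MEM and cultured for 24 h. They were then treated with compounds at up to 57.5 uM final for 24 h at 37 degrees C before Dual-Glo luminescence readout.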
Potency means the concentration at half of the fitted maximal effect.

Structure (SMILES) | Potency | activity change, positive = activation
Cc1ccc2oc(-c3ccc(Cl)cc3)c(O)c(=O)c2c1 | active: 2510 nM | –
Cc1cc(O)c(C(c2ccccc2)N2CCN(c3ccccc3)CC2)c(=O)n1Cc1ccco1 (configuration not stated) | – | inactive: 7.79%
Cc1cccc(N(C)C(=S)Oc2ccc3c(c2)C2CCC3C2)c1 (configuration not stated) | – | inactive: -6.6%
CCCN(C(=O)Cc1nc(-c2ccc(OC)cc2)no1)c1ccccc1C | – | inactive: -29.5%
CCc1cccc(C)c1NC(=O)CCCn1c(C)c2cnn(-c3ccccc3)c(=O)c2c1C | – | inactive: -21.1%
CCCCOC(=O)c1ccc(OC(=O)c2sc3ncn(Cc4cccc(F)c4)c(=O)c3c2C)cc1 | – | inactive: -7.49%
CCOC(=O)c1[nH]c(C)c(CCC(=O)Nc2ccccc2OCC)c1C | – | inactive: -26.6%
CCC(C)NC(=O)Cn1c(=O)n(CCCCCC(=O)Nc2ccccc2)c(=O)c2sccc21 (configuration not stated) | – | inactive: 11.3%
COc1ccc(C(=O)Nc2nnc(SCc3cc(=O)c4cccc(F)c4[nH]3)s2)cc1 | – | inactive: 2.08%
Cn1c(=O)c2c(nc(NCCCCO)n2Cc2ccccc2Cl)n(C)c1=O | – | inactive: 3.73% [at 11.5 µM, percent change from vehicle, -100% = no light]
CN1C(=O)CC(C(=O)Nc2ccc(C(=O)O)cc2)SC1=Nc1ccc(Cl)cc1 (configuration not stated) | – | inactive: -15.2%
Cc1ccc2c(=O)cc(C(=O)Nc3ccc(S(=O)(=O)N4CCCCC4C)cc3)oc2c1C (configuration not stated) | – | inactive: 4.17%
CCN(CC)c1ccc(NS(=O)(=O)c2cc(-c3onc(C)c3C)ccc2OC)c(C)c1 | – | inactive: -29.9%
CCN(CC)CCCNC(=O)Cn1ncc2c3ccccc3n(Cc3ccccc3)c2c1=O | – | inactive: -3%
COc1cccc(-c2nnc(SCC(=O)N(C)c3ccccc3)o2)c1 | – | inactive: 13.9%
COc1cc2[nH]c(=O)[nH]c(=O)c2cc1OC | – | inactive: -2.33%
CC(=O)c1ccc(NC(=O)C(C)n2nc(-c3ccccc3)ccc2=O)cc1 (configuration not stated) | – | inactive: -7.45%
CCn1c2ccccc2c2cc(CN3CCN(Cc4ccc(Cl)cc4)CC3)ccc21 | – | inactive: -30.5%
COCCCNC(=O)CSc1nc2cc3c(cc2c(=O)n1CCCCCC(=O)NCCc1ccc(OC)c(OC)c1)OCO3 | – | inactive: -2.68%
CCc1nn2c(=O)cc(COC(=O)c3cccc(NC(=O)c4ccccc4C)c3)nc2s1 | – | inactive: 10.7%
COc1ccc2c(CNC3CCCC3)c(C(=O)O)n(Cc3ccccc3C)c2c1 | – | inactive: -3.42%
CC(C)(C)C1CCc2nc(NC(=O)COc3ccccc3[N+](=O)[O-])sc2C1 (configuration not stated) | – | inactive: -76.5%
CC(C)C(=O)Nc1cccc(C(F)(F)F)c1 | – | inactive: 0.0493%
Cc1cc(C)c2c(=O)cc(C(=O)Nc3sc4c(c3C#N)CCCC4)oc2c1 | – | inactive: -8.2%

Structure (SMILES) | Potency | activity change, positive = activation
O=C(NCc1ccc(F)cc1)c1ccc2c(c1)N(Cc1c(F)cccc1Cl)C(=O)CS2 | – | inactive: -42.4%
CC1=C(c2ccc(C)cc2)S(=O)(=O)N(Cc2ccc(C(=O)NCc3ccccc3)cc2)C1=O | – | inactive: -35.2%
Cc1ccccc1NC(=O)CN1C(=O)C2(SCC(=O)N2c2ccc(F)cc2)c2ccccc21 (configuration not stated) | – | inactive: -10.8%
CCn1cc(C(=O)NCCc2ccc(OC)c(OC)c2)c(=O)c2cc(S(=O)(=O)N3CCOCC3)ccc21 | – | inactive: 9.76%
CC1CCN(S(=O)(=O)c2ccc3c(ccn3CC(=O)NCc3ccccc3F)c2)CC1 | – | inactive: -27.2%
COc1cccc(CNC(=O)c2ccc3c(c2)nc2n3CCOC2)c1OC | – | inactive: -9.68%
Cc1ccc(C)c(NC(=O)CN2CCN(C3CCCCC3)C(=O)C2=O)c1 | – | inactive: -0.195%
Cc1cnc(C(=O)NCCc2ccc(S(=O)(=O)NC(=O)NC3CCCCC3)cc2)cn1 | – | inactive
CCc1nc2c(cnn2-c2ccc(C)cc2)c(=O)n1-c1ccc(C)cc1 | – | inactive: -29.1%
O=C(Nc1cccc(C(F)(F)F)c1)c1cc(-c2ccc(Cl)cc2)on1 | – | inactive: -7.78%
Cc1ccc(-c2noc(C(C)NC(=O)c3ccco3)n2)cc1 (configuration not stated) | – | inactive: -23.2%
COc1ccc(S(=O)(=O)c2c(SC)nn(CC(=O)Nc3ccc(C)c(Cl)c3)c2N)cc1 | – | inactive: -66.1%
Cc1cc(-c2ncc(CC(=O)Nc3ccc(-c4cnccn4)cn3)cc2C)ccn1 | – | inactive: -23.2%
CCOC(=O)c1[nH]c2ccccc2c1NC(=O)c1cc(OC)cc(OC)c1 | – | inactive: -9.82%
COc1cccc(-c2ccnc3c(-c4ccccc4)c(C)nn23)c1 | – | inactive: 26.2%
C[C@H]1[C@H](NC(=O)C(=NOC(C)(C)C(=O)O)c2csc(N)n2)C(=O)N1S(=O)(=O)O | – | inactive: -7.63%
CCOc1ccc(NC(=O)N2CCC(CN3CCC(C)CC3)CC2)cc1 | – | inactive: -14.3%
COc1ccc(-c2cc(C(=O)NCCc3ccc(Cl)cc3)[nH]n2)cc1 | – | inactive: -3.6%
Cc1ccccc1-c1nc2c3c(-c4ccccc4)c(-c4ccccc4)oc3ncn2n1 | – | inactive: -3.05%
Cc1cccc(N2CCN(C(=O)COCc3cc(-c4ccc5c(c4)OCO5)on3)CC2)c1C | – | inactive: 9.51%
COC(=O)c1ccccc1NC(=O)COCc1cc(-c2cccs2)on1 | – | inactive: -22.8%
Cc1ccc(CNc2nc3c(c(=O)n(C)c(=O)n3C)n2Cc2ccc(Cl)cc2)cc1 | – | inactive: 10.5%
CCn1c(=O)n(-c2ccc(F)c(Cl)c2)c(=O)c2sc3ccccc3c21 | – | inactive: -8.37%
